Measured values: patent publication US20080275078A1, “Pyrazolo[3,4-B] Pyridine Compounds and Their Use as Pde4 Inhibitors” (Glaxo Group Limited, priority 2004, published 2008)
Some entries share one result that the patent states for a list of compounds.

Molecular target: T1, PDE4B (human recombinant) (Homo sapiens, UniProt Q07343)
T1 construct: made in house; host or cells: Saccharomyces cerevisiae strain GL62 (PDE-deficient yeast), 100,000xg supernatant of cell lysate, as described in WO 94/20079
T1 sequence (Q07343 1-564 isoform Q07343-2): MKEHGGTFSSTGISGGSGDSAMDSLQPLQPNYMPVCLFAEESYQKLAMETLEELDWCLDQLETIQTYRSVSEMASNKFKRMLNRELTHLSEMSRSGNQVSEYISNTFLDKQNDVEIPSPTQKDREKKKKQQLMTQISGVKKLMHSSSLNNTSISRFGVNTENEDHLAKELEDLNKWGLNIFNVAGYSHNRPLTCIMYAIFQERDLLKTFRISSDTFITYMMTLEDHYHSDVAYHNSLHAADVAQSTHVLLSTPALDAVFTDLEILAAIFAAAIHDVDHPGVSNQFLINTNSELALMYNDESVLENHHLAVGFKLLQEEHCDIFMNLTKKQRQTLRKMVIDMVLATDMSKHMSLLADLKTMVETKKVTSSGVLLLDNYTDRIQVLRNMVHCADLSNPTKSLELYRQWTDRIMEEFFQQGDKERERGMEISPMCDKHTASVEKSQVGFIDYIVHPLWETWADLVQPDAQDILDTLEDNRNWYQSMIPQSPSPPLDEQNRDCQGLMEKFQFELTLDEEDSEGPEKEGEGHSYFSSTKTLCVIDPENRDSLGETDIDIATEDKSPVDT
Assay: Inhibition of PDE4B activity (SPA or FP assay)
Type: biochemical
Settings: SPA or FP assay or similar; n=1 or average of 2 or more readings; range given for the listed group of Examples
Text: Human recombinant PDE4B, in particular the 2B splice variant thereof (HSPDE4B2B), is disclosed in WO 94/20079 and also M. M. McLaughlin et al., “A low Km, rolipram-sensitive, cAMP-specific phosphodiesterase from human brain: cloning and expression of cDNA, biochemical characterisation of recombinant protein, and tissue distribution of mRNA”, J. Biol. Chem., 1993, 268, 6470-6476. For example, in Example 1 of WO 94/20079, human recombinant PDE4B is described as being expressed in the PDE-deficient yeast Saccharomyces cerevisiae strain GL62, e.g. after induction by addition of 150 uM CuSO4, and 100,000×g supernatant fractions of yeast cell lysates are described for use in the harvesting of PDE4B enzyme.
The ability of compounds to inhibit catalytic activity at PDE4B or 4D (human recombinant), PDE3 (from bovine aorta), PDE5 (human recombinant) or PDE6 (from bovine retina) can optionally be determined by Scintillation Proximity Assay (SPA) in a 96-well format. • Test compounds (as a solution in DMSO, preferably about 2 microlitre (ul) volume of DMSO solution) are preincubated at ambient temperature (room temperature, e.g. 19-23° C.) in Wallac Isoplates (code 1450-514) with PDE enzyme in 50 mM Tris-HCl buffer pH 7.5, 8.3 mM MgCl2, 1.7 mM EGTA, 0.05% (w/v) bovine serum albumin for 10-30 minutes (usually 30 minutes). The enzyme concentration is adjusted so that no more than 20% hydrolysis of the substrate defined below occurs in control wells without compound, during the incubation. For the PDE3, PDE4B and PDE4D assays, [5′,8-^3H]Adenosine 3′,5′-cyclic phosphate (Amersham Pharmacia Biotech, code TRK.559; or Amersham Biosciences UK Ltd, Pollards Wood, Chalfont St Giles, Buckinghamshire HP8 4SP, UK) is added to give 0.05 uCi per well and about 10 nM final concentration. For the PDE5 and PDE6 assays, [8-^3H]Guanosine 3′,5′-cyclic phosphate (Amersham Pharmacia Biotech, code TRK.392) is added to give 0.05 uCi per well and about 36 nM final concentration. Plates containing assay mixture, preferably approx. 100 ul volume of assay mixture, are mixed on an orbital shaker for 5 minutes and incubated at ambient temperature for 1 hour. Phosphodiesterase SPA beads (Amersham Pharmacia Biotech, code RPNQ 0150) are added (about 1 mg per well) to terminate the assay. Plates are sealed and shaken and allowed to stand at ambient temperature for 35 minutes to 1 hour (preferably 35 minutes) to allow the beads to settle. Bound radioactive product is measured using a WALLAC TRILUX 1450 Microbeta scintillation counter. For inhibition curves, 10 concentrations (e.g. 1.5 nM-30 uM) of each compound are assayed. Curves are analysed using ActivityBase and XLfit (ID Business Solutions Limited, 2 Ocean Court, Surrey Research Park, Guildford, Surrey GU2 7QB, United Kingdom) Results are expressed as pIC50 values.
The ability of compounds to inhibit catalytic activity at PDE4B (human recombinant) or PDE4D (human recombinant) can optionally be determined by IMAP Fluorescence Polarisation (FP) assay (IMAP Explorer kit, available from Molecular Devices Corporation, Sunnydale, Calif., USA; Molecular Devices code: R8062) in a 384-well format.
The IMAP FP assay is able to measure PDE activity in an homogenous, non-radioactive assay format. The FP assay uses the ability of immobilised trivalent metal cations, coated onto nanoparticles (tiny beads), to bind the phosphate group of Fl-AMP that is produced on the hydrolysis of fluorescein-labelled (Fl) cyclic adenosine mono-phosphate (Fl-cAMP) to the non-cyclic Fl-AMP form. […] Binding of Fl-AMP product to the beads (coated with the immobilised trivalent cations) slows the rotation of the bound Fl-AMP and leads to an increase in the fluorescence polarisation ratio of parallel to perpendicular light. Inhibition of the PDE reduces/inhibits this signal increase. […]

| SMILES | PDE4B pIC50 (±about 0.5) |
| --- | --- |
| CCn1ncc2c(NC3CCN(C(N)=O)CC3)c(C(=O)NCc3ccc(F)cc3F)cnc21 [Example 10, 4-{[1-(aminocarbonyl)-4-piperidinyl]amino}-N-[(2,4-difluorophenyl)methyl]-1-ethyl-1H-pyrazolo[3,4-b]pyridine-5-carboxamide] | 8.6 to 9.9 |
| CCn1ncc2c(NC3CCN(C(N)=O)CC3)c(C(=O)NCc3ccc(C(F)(F)F)cc3)cnc21 [Example 11, 4-{[1-(aminocarbonyl)-4-piperidinyl]amino}-1-ethyl-N-{[4-(trifluoromethyl)phenyl]methyl}-1H-pyrazolo[3,4-b]pyridine-5-carboxamide] | 8.6 to 9.9 |
| CCn1ncc2c(NC3CCN(C(N)=O)CC3)c(C(=O)NCc3ccc(O)cc3)cnc21 [Example 12, 4-{[1-(aminocarbonyl)-4-piperidinyl]amino}-1-ethyl-N-[(4-hydroxyphenyl)methyl]-1H-pyrazolo[3,4-b]pyridine-5-carboxamide] | 8.6 to 9.9 |
| CCn1ncc2c(NC3CCN(C(N)=O)CC3)c(C(=O)NCc3ccccc3)cnc21 [Example 13, 4-{[1-(aminocarbonyl)-4-piperidinyl]amino}-1-ethyl-N-(phenylmethyl)-1H-pyrazolo[3,4-b]pyridine-5-carboxamide] | 8.6 to 9.9 |
| CCn1ncc2c(NC3CCN(C(N)=O)CC3)c(C(=O)NCc3ccccc3S(C)(=O)=O)cnc21 [Example 14, 4-{[1-(aminocarbonyl)-4-piperidinyl]amino}-1-ethyl-N-{[2-(methylsulfonyl)phenyl]methyl}-1H-pyrazolo[3,4-b]pyridine-5-carboxamide] | 8.6 to 9.9 |
| CCn1ncc2c(NC3CCN(C(N)=O)CC3)c(C(=O)NCc3cccc(O)c3)cnc21 [Example 15, 4-{[1-(aminocarbonyl)-4-piperidinyl]amino}-1-ethyl-N-[(3-hydroxyphenyl)methyl]-1H-pyrazolo[3,4-b]pyridine-5-carboxamide] | 8.6 to 9.9 |
| CCn1ncc2c(NC3CCN(C(N)=O)CC3)c(C(=O)NCc3cccc(Cl)c3Cl)cnc21 [Example 16, 4-{[1-(aminocarbonyl)-4-piperidinyl]amino}-N-[(2,3-dichlorophenyl)methyl]-1-ethyl-1H-pyrazolo[3,4-b]pyridine-5-carboxamide] | 8.6 to 9.9 |
| CCn1ncc2c(NC3CCN(C(N)=O)CC3)c(C(=O)NCc3cccc(C)c3C)cnc21 [Example 17, 4-{[1-(aminocarbonyl)-4-piperidinyl]amino}-N-[(2,3-dimethylphenyl)methyl]-1-ethyl-1H-pyrazolo[3,4-b]pyridine-5-carboxamide] | 8.6 to 9.9 |
| CCn1ncc2c(NC3CCN(C(N)=O)CC3)c(C(=O)NCc3ccccc3-c3ccccc3)cnc21 [Example 18, 4-{[1-(aminocarbonyl)-4-piperidinyl]amino}-N-(2-biphenylylmethyl)-1-ethyl-1H-pyrazolo[3,4-b]pyridine-5-carboxamide] | 8.6 to 9.9 |
| CCn1ncc2c(NC3CCN(C(N)=O)CC3)c(C(=O)NCc3ccc(Cl)cc3F)cnc21 [Example 19, 4-{[1-(aminocarbonyl)-4-piperidinyl]amino}-N-[(4-chloro-2-fluorophenyl)methyl]-1-ethyl-1H-pyrazolo[3,4-b]pyridine-5-carboxamide] | 8.6 to 9.9 |
| CCn1ncc2c(NC3CCN(C(N)=O)CC3)c(C(=O)NCc3ccc4c(c3)CCO4)cnc21 [Example 20, 4-{[1-(aminocarbonyl)-4-piperidinyl]amino}-N-(2,3-dihydro-1-benzofuran-5-ylmethyl)-1-ethyl-1H-pyrazolo[3,4-b]pyridine-5-carboxamide] | 8.6 to 9.9 |
| CCn1ncc2c(NC3CCN(C(N)=O)CC3)c(C(=O)NCc3ccc(OC(F)F)cc3)cnc21 [Example 21, 4-{[1-(aminocarbonyl)-4-piperidinyl]amino}-N-({4-[(difluoromethyl)oxy]phenyl}methyl)-1-ethyl-1H-pyrazolo[3,4-b]pyridine-5-carboxamide] | 8.6 to 9.9 |
| CCn1ncc2c(NC3CCN(C(N)=O)CC3)c(C(=O)NCc3ccc(Cl)cc3C)cnc21 [Example 22, 4-{[1-(aminocarbonyl)-4-piperidinyl]amino}-N-[(4-chloro-2-methylphenyl)methyl]-1-ethyl-1H-pyrazolo[3,4-b]pyridine-5-carboxamide] | 8.6 to 9.9 |
| CCn1ncc2c(NC3CCN(C(N)=O)CC3)c(C(=O)NCc3ccc(-c4ccc(Cl)cc4)cc3)cnc21 [Example 23, 4-{[1-(aminocarbonyl)-4-piperidinyl]amino}-N-[(4′-chloro-4-biphenylyl)methyl]-1-ethyl-1H-pyrazolo[3,4-b]pyridine-5-carboxamide] | 8.2 to 9.6 |
| CCn1ncc2c(NC3CCN(C(N)=O)CC3)c(C(=O)NCc3ccc(S(C)(=O)=O)cc3)cnc21 [Example 24, 4-{[1-(aminocarbonyl)-4-piperidinyl]amino}-1-ethyl-N-{[4-(methylsulfonyl)phenyl]methyl}-1H-pyrazolo[3,4-b]pyridine-5-carboxamide] | 8.6 to 9.9 |
| CCn1ncc2c(NC3CCN(C(N)=O)CC3)c(C(=O)NCc3ccccc3-c3ccc(C(F)(F)F)cc3)cnc21 [Example 25, 4-{[1-(aminocarbonyl)-4-piperidinyl]amino}-1-ethyl-N-{[4′-(trifluoromethyl)-2-biphenylyl]methyl}-1H-pyrazolo[3,4-b]pyridine-5-carboxamide] | 8.2 to 9.6 |
| CCn1ncc2c(NC3CCN(C(N)=O)CC3)c(C(=O)NCc3ccc(Cl)cc3)cnc21 [Example 26, 4-{[1-(aminocarbonyl)-4-piperidinyl]amino}-N-[(4-chlorophenyl)methyl]-1-ethyl-1H-pyrazolo[3,4-b]pyridine-5-carboxamide] | 8.6 to 9.9 |
| CCn1ncc2c(NC3CCN(C(N)=O)CC3)c(C(=O)NCc3ccc(-c4ccccc4)cc3)cnc21 [Example 27, 4-{[1-(aminocarbonyl)-4-piperidinyl]amino}-N-(4-biphenylylmethyl)-1-ethyl-1H-pyrazolo[3,4-b]pyridine-5-carboxamide] | 8.2 to 9.6 |
| CCOc1ccc(-c2ccc(CNC(=O)c3cnc4c(cnn4CC)c3NC3CCN(C(N)=O)CC3)cc2)cc1 [Example 28, 4-{[1-(aminocarbonyl)-4-piperidinyl]amino}-1-ethyl-N-{[4′-(ethyloxy)-4-biphenylyl]methyl}-1H-pyrazolo[3,4-b]pyridine-5-carboxamide] | 8.2 to 9.6 |
| CCn1ncc2c(NC3CCN(C(N)=O)CC3)c(C(=O)NCc3cccc(-c4ccccc4)c3)cnc21 [Example 29, 4-{[1-(aminocarbonyl)-4-piperidinyl]amino}-N-(3-biphenylylmethyl)-1-ethyl-1H-pyrazolo[3,4-b]pyridine-5-carboxamide] | 8.2 to 9.6 |
| CCn1ncc2c(NC3CCN(C(N)=O)CC3)c(C(=O)NCc3ccc(-c4ccc(C(F)(F)F)cc4)cc3)cnc21 [Example 30, 4-{[1-(aminocarbonyl)-4-piperidinyl]amino}-1-ethyl-N-{[4′-(trifluoromethyl)-4-biphenylyl]methyl}-1H-pyrazolo[3,4-b]pyridine-5-carboxamide] | 8.2 to 9.6 |
